The source of these data is PubChem BioAssay (NCI).

This experiment relates to SR leukemia. Put plainly: NCI-60 one-dose screen, 48 h (100 = growth as untreated, 0 = no growth, -100 = all killed). As to conditions: 0.25 µM.

Each structure is given as a SMILES string. The source holds several records for some structures; these can differ, active in one and inactive in another.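 Interpretation: 100, growth as untreated; towards 0, rising growth inhibition; 0, no net growth; 0 to -100, cell death. Compounds scoring below 10 were considered active.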 For part of its entries the source gives two or more results. They are shown here; other results are not. The source may hold further records. This drug was run again and again over the years, at the concentration stated with the values; each value is one run. Signs of the kind (2×) give the number of equal values in this list.

With `COc1cccc2c1C(=O)c1c(O)c3c(c(O)c1C2=O)C[C@@](O)(C(=O)CO)C[C@@H]3OC1CC(N)C(O)C(C)O1` (stereo not given in full), the growth entry by setting is: (runs of 2006) “active: 4.56%, -36.9%”; (runs of 2007) “active: 4.44, -44.9, -34.7, -23.9, -27.6, -10.6, -8.81, -25.3, -3.62, -12.5, 0.405, -29.7, -1.97, -18, -36.8, 5.61, -16.4, -23.6, -8.62, -18.6, 5.07, -2.4 (2×), 0.966, -1.82, -7.41, -2.37% and inactive: 36.3, 10.7, 41.1, 46.2, 61.7, 11, 45.1, 67, 24.3, 19.5%”; (runs of 2008) “inactive: 40.4, 17.2, 32.7, 37.7, 70.4, 41.3, 20.9, 69.7, 42, 25.3, 26.2, 46.2, 73.5, 13.3, 46.5, 96.4, 60.5, 66.1, 74.4, 28.7, 17.7, 26.3, 17.4, 32.8, 23.5, 41.8, 22.4% and active: 0.717, -27.4, -18.8, -29.7, -20.1, -33.6, -28.7, -26.7, -5.99, -8.58, -16.5, -31.5, -9.05, -43.7, -45.2, -49.8, -1.25, -1.58, -15.1, -25.8, 3.78, -43, -18.6, -22.3%”; (runs of 2009) “active: -13.5, -14.7, -12.7, -12.4, -27.3, -23.2, -20.9, -24.6, -52.3, -51.2, 7.35, -8.01, -7.59, 0.673, -8.41, 8.03, -6.55, 1.82, 5, 9.61, 3.52 (2×), 7.52, -0.583, -16.3, 6.88, 8.37, 7.76, -8.79, -6.02% and inactive: 24.2, 26.4, 17.7, 10.6, 18.5, 19.6, 21.9, 14.7, 15.4, 14, 22.3, 30.4, 14.8, 28.4, 17, 17.6, 16.6, 13.2, 20, 18.1%”; (runs of 2010) “inactive: 19, 19.9, 21.7, 20.7, 18.3, 19.4, 17.4, 18.1, 12.6 (2×), 17.7 (2×), 13.8, 17.1, 16.5, 15.2, 11.7, 12.5, 10.6, 20.8, 13.1% and active: 6.75, 9.69, 4.64, -0.428, 8.99, 3.78, 4.93, 0.935, 6, 8.59, 3.14, 9.38, 3.27, 5.52, 4.54, 2.34, 3.08, 3.64, 5.99, 6.22, 6.36, 9.81, 7.17, 8.79, 3.71, 4.8, -2.72, 1.49, 0.417%”; (runs of 2011) “active: -8.56, -5.27, 1.73, 5.82, -10.1, 6.34, -17.7, 4.93, 3.41, -3.56, 5.8, 1.97, 6.14, -1.84, 1.77, 9.17, 8.81, 1.81, -5.81, 2.49, 5.25, 5.43, 9.85, 8.84, 4.55, 5.74, 0.344, 6.07, -9.26% and inactive: 22, 10.1, 15.4, 15.9, 12.1 (2×), 39.4, 10, 11.7 (2×), 20.6, 17.7, 18.1, 10.4, 12.9, 13.4, 14, 11.2, 15.8% (2×)”. Also, the growth result (runs of 2012) is “active: 4.18, -6.85, 5.15, 5.11, 0.735, 5.34, 4.22, -3.91, -16.8, -4.07, -22.9, -16.3, -28.7, -22.4, -24.6, -6.09, -24.2, -17.2, -21.8, -3.43, -11.2 (2×), 3.32, 0.0855, 8.28, 1.6, 9.12, -1.39, 6.93, 6.15, 4.14, 9.39, 6.66, 5.43, 1.87, -1.94, 7.94, -5.93, -4.95, 9.56, 8.55, 4.67, -44.7, -14.7, 4.84, -48.2, 4.57, -2.98, -20.4% and inactive: 22.6, 18.7, 23.7, 16.6, 11.2, 11.9, 10.8, 11.1, 15.3, 11.7, 22.9, 18.5, 10.9, 16.1, 16.2, 21%”; the growth result (runs of 2013) is “active: -0.672, -15.5, -4.83, -0.0567, 9.06, -0.208, 5.89, 4.73, 5.54, -3.48, -0.345, 5.01, -14.1, 2.56, 7.58, 0.957, 1.5, 8.86, 4.28, 0.0501, 0.85, -5.69, 7.51, -13.9, 6.7, -2.25, 5.24, -5.82, 9.77, 8.15, 6.55, 5.88, 7.33, 6.62, 2.61, 2.65, 6.26, 4.48, 2.38, 9.84, 4.51, 1.72, 6.73, 3.67% and inactive: 13.2 (2×), 14.6 (2×), 22.9, 10.7, 27.3, 15.1, 13.3 (2×), 15.6 (2×), 16.5, 12.7, 12, 12.8, 15, 18.8, 19.3, 19.9, 17.4, 18.3, 11.5, 10.6, 10.9, 13.1% (2×)”; the growth entry (runs of 2014) is “active: 9.64, 2.6, 8.58 (2×), 1.61, 3.28, 5.76, 8.74, 1.86, 8.36, -1.06 (2×), 7.11, 9.18, 5.74, -0.0621, 2.67, 7.29, 3.95, 7.26, 6.85, 8.2, 9.47, 8.28, 9, 3.63, 7.09, 9.85, 7.03, 6.4, -4.45, 1.04, 5.88, 4.11, -10.3, -14.2, 7.1, 6.98, 9.53, 3.13, 2.41, 8.89, -5.45, 5.92, 8.42, 7.25% and inactive: 17.9, 10.9 (2×), 15, 14.5, 14.2, 10.7, 10.4 (2×), 11.5 (2×), 11.6, 11.1 (3×), 12.2, 12.1 (2×), 14.1, 15.4, 14.4, 23.2, 17.8, 13.9, 13.7, 23.8%”; the growth entry (runs of 2015) is “inactive: 14.8, 15 (3×), 11.5 (2×), 13.8, 13.4, 15.9, 12.9, 17.8, 11.6, 18.2, 19.1, 13.9, 15.4, 16.5, 13.2, 13, 14.6, 16, 14, 15.1, 14.7, 14.5, 16.1, 25.5, 20.3, 13.1, 11.1% and active: 8.27, 5.98, 4.27, 6.21, 9.41, 4.46, 2.25, 1.01, 3.93, 6.75, 2.2, 1.58, 1.02, 1.67, 8.6, 9.64, 9.54, 5.08, 5.59, 5.92, 5.38, 7.22, 3.83, 9.14, 7.27, 9.26, 9.5, 9.89, 5.46, 7.71, 7.65, 6.92, 3.1, 5.75, 0.193, -4.09, 0.509, -1.34, 5.83, 5.82, 0.403, 1.51, 7.7, 2.7, 2.61, 8.04, 0.573, 2.81, 8.07%”; the growth result (runs of 2016) is “active: 8.52, 5.33, 2.57, 5.29, 6.57, 2.71, 4.57, -2.23, 7.17, 2.98, 9.07, 7.95, 5.44, 9.57, 8.13, 5.09, 8.49, 8.18 (2×), -3.25, 3.97, 9.55, 8.92, 9.67, 6.99, 9.31, 6.48, 5.73, 8.06, 6.56, 9.62% and inactive: 10.4, 14.5 (2×), 15 (3×), 16.2 (2×), 18.5, 18.8, 14.9, 11.7, 14.7, 18.1, 14.8, 13.3 (2×), 13.5 (3×), 11.6 (2×), 13.2, 13.1, 16.6 (2×), 14.2, 15.3, 10.8, 14.1, 14.6, 12.9, 13.4, 11.1 (2×), 10.6, 12.7, 11 (2×), 17.4, 19, 15.8, 23.9, 24.4, 15.7, 18.7, 17.8, 10.1, 17.2, 15.9%”; the growth result (runs of 2017) is “inactive: 10.9, 13.3, 13.5, 15.1, 17.6, 11.2, 15.9, 14.5, 14, 15, 10, 12.1, 14.2, 13.1, 11.6 (2×), 13.7% and active: 9.12, 9.04, 7.36, 6.79, 5.96, 5.04, 3.58, 7.29, 6.26, 6.59, 4.18, 3.84, 7.54, 5.25, -0.758, 9.98, 6.43, 3.66, 7.57 (2×), 6.62, 6.82 (2×), 8.53, 8.89, 5.78, 7.58, 1.76, 8.76, 7.84, 7, 6.54, 9.76, 7.89 (2×), 4.84, 8.29, 7.94, 7.92, 5.58, 5.16, 6, 9.23, 8.46, 6.51, 9.62, 7.93, 4.83, 3.06 (2×), 2.79, 4.51, 2.07, -1.79%”. For the same molecule, the growth result is, setting by setting: (runs of 2018) “inactive: 10.7 (2×), 10.8, 12.3, 13, 12.6, 13.5 (2×), 36.3, 14.5, 28.4, 22.6, 22.7, 13.9 (2×), 12.5, 13.2, 14.7, 25.6, 22.8 (2×), 11, 13.7, 16.5, 17.2, 15.4, 18.3, 16, 20.6, 14.4, 15, 12.8, 15.7, 13.8, 17.6% and active: 8.15, 7.66, 7.27, 4.91, 4.83, 6.24, 7.83, 9.77, 6.94, 4.79, -2.77, -4.8%”; (runs of 2019) “inactive: 29.1, 25.1, 13, 13.2, 16.2, 14.1, 13.4, 14.9, 23.9, 20.4, 17.1 (2×), 16.9, 15.6, 22.1, 18.3, 17.8, 15.4, 22.6, 19.4, 11.1, 11.5, 23.6, 25.9, 12.1, 13.3, 10.6% and active: 7.72, 7.26, 3.63, 8.38, 9.54, 9.71, 8.99, 8.09, 8.9, 7.97, 6.69, 4.34, 7.13, 4.87, 4.42, 6.83, -2.13%”; (runs of 2020) “active: 1.26, 2.59, 7.29, 4.84, 7.89, 5.72, 5.5, 4.55, -0.393, 4.71, 9.6, 5.45, 8.81% and inactive: 26.6, 15.9, 12.5, 13.1, 11, 14.6, 13.5, 17.7, 18.7%”.
